Measured values taken from the supplement of paper PMC10126150.
Values marked as one replicate rest on one cluster of the flow cell; about a third of the high ones do not repeat.

Tested on: ATP
Assay: switch fluorescence ratio, 500 uM ATP over buffer (Cy3 cluster intensity, sum of 5 cycles each) (fold (ratio)); higher = stronger signal-on switching upon ATP binding; sequences stand for … in TCGTCGGCAGCGTCAGATGTGTATAAGAGACAGTTTTTTTTTTTTTTTTTTTTTTTTT…TC
Conditions: aptamer strand: ATP DNA aptamer (quencher-CACCTGGGGGAGTATTGCGGAGGAAGG + anchor), 100 nM annealed; ATP concentration: 500 uM; one replicate
Method in brief: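 After annealing to 100 nM quencher-labelled ATP aptamer, Cy3-labelled switching-strand clusters on a modified Illumina MiSeq flow-cell were imaged in selection buffer. A second image followed after 15 min with 500 uM ATP at 22 °C, and five such buffer/ATP cycles were done, each separated by NaOH stripping and re-annealing. The fluorescence ratio, averaged per switch-domain sequence, is summed target-cycle over summed buffer-cycle Cy3 intensity per cluster, with clusters outside 100-1000 RFU excluded.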
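Also: ATP exposure 15 min at 22 °C before imaging.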

Row | Sequence | switch fluorescence ratio
1 | GAACTATAGG | 1.05
2 | TGAGATTGGT | 1
3 | CATGTGCTAA | 1.01
4 | TGTTTAACTT | 0.992
5 | CAGTTCGCGG | 1.02
6 | CACCACGGGT | 1.04
7 | TCATTAAA | 0.974
8 | ATGATTTGT | 1.05
9 | TGTCGGGTTT | 0.949
10 | AACACTTTTT | 1.02
11 | AAGGTAGTTG | 1
12 | GACATTGCTT | 0.989
13 | TAGGGTGAAC | 1.01
14 | AACCCGAATT | 1.01
15 | CATCGACTTT | 1.01
16 | GATCCGGAGA | 1.07
17 | TTCGGTGATA | 0.998
18 | TTAACCGGGC | 1.65
19 | ATAGGTATAT | 1.03
20 | TTACATTAAT | 1.03
21 | AGATGAATCT | 0.985
22 | GTCACTCGTA | 1.05
23 | GTTACTTATT | 1.02

Row | Sequence | switch fluorescence ratio
24 | TAAGAGTAGC | 0.977
25 | TTTAGACT | 0.952
26 | AAAAATTCTA | 1.07
27 | CTCATATATT | 1.01
28 | TAGTAAGGGT | 0.982
29 | TACTGACGCC | 1.32
30 | CTCCAAAAT | 3.48
31 | TTATGAGTGG | 1.01
32 | AAGCATCCA | 1.02
33 | TAGCTTCCTT | 1.36
34 | TACGGATGA | 1.05
35 | TGCTTAGCCG | 0.949
36 | ATCGAGGGAT | 0.99
37 | AGCTGTGACG | 1.04
38 | CGTGATTGG | 0.997
39 | GGTGTGCCGC | 0.803
40 | TAATGCGGC | 1.05
41 | TGGCCCATCA | 0.958
42 | AAGGGAGCTC | 0.97
43 | CGTATTCCGT | 1.01
44 | ACATTAGGCG | 1.07
45 | ATGAGAAAGG | 1.02
46 | CCAGTTAGGT | 1.09

Row | Sequence | switch fluorescence ratio
47 | ATGGACCTGG | 0.924
48 | CGTGACCAGA | 1.1
49 | GCTACTTTCT | 1.02
50 | GAGGCGGGCT | 0.984
51 | AGTTATTCAC | 1.06
52 | GTATTTAACC | 1.04
53 | CAAGAAGGTG | 1.38
54 | CAGGAAGTTG | 1.06
55 | GCATGAAATC | 1.06
56 | TTGAAAGGCG | 0.944
57 | TGCTCCTCAG | 1.24
58 | GGCAACTCTG | 1.01
59 | CGTACCGCTA | 2.49
60 | TGGTGGCGGC | 1.03
61 | GCAAAGGGAT | 1.02
62 | TCAGAAACAG | 1.02
63 | CTGTCATCA | 1.03
64 | AGTGTAGGAG | 1.02
65 | TCGCTTTGCG | 0.979
66 | CGGTTAATGG | 0.979
67 | CCAATGTATT | 1.11
68 | AAACTCTTTC | 1.28
69 | CCACCCCTTA | 1.05

Row | Sequence | switch fluorescence ratio
70 | AATTGCTCTC | 1.02
71 | CATACACCCT | 1.33
72 | CGGCTCATTC | 1.05
73 | TCACAAGGTA | 1.04
74 | TCTTATGTCC | 1
75 | ACGCACTTTA | 1.48
76 | GTATCCGCGG | 1.08
77 | AAACGCTGGG | 0.987
78 | GCACGCGTAC | 2.84
79 | CGCCTCTGAT | 0.987
80 | ATCACTCGCG | 1.04
81 | CCTTGTCTTT | 0.982
82 | CAATCACTA | 1.01
83 | TTCCGGCCGT | 1.02
84 | TTCGTTCCTT | 0.977
85 | AAGGGGATGC | 0.989
86 | TTATTACCTC | 0.99
87 | ATGAAAGAGG | 0.944
88 | TACCATCATG | 0.985
89 | ATGTTTTGCA | 1
90 | CTCGAAATTG | 0.981
91 | GATATCGGG | 1
92 | TTATACAACG | 1.01

Row | Sequence | switch fluorescence ratio
93 | ACGTAGCCGA | 0.978
94 | TATTGTTGAT | 0.957
95 | GAACCGGGA | 1.06
96 | TGTATCATGA | 0.974
97 | GGTGTGGTGT | 1.02
98 | TGAGGGAATA | 1.13
99 | CTTTGGCGC | 1.03
100 | CATGTTAACA | 0.974
101 | AGACTGCTTC | 0.92
102 | TTGGAATTGG | 0.972
103 | ATACGCTGTG | 1.03
104 | GGACACGCTA | 1.33
105 | CCGAGGATTC | 1.47
106 | CCGTGTATGG | 1.02
107 | GACTGATGCA | 0.967
108 | CAGGTAGTCG | 0.966
109 | GCTACGATTA | 1.14
110 | ACATAGACTT | 1.05
111 | GGTAATATTC | 1.04
112 | GGAGGCAAGC | 1.78
113 | CGGTAGCGTT | 0.996
114 | CGTGTGAAGC | 1.03
115 | GTTTTTCCGT | 0.995

Row | Sequence | switch fluorescence ratio
116 | GTCAGACGTT | 1.04
117 | TTTTGCCACG | 0.997
118 | CAAAAAACCC | 1.03
119 | GCTATGGGGT | 1.05
120 | TTAAAAGCCC | 0.967
121 | CAGCAGAGAT | 1.06
122 | GTAAAATGAC | 1.01
123 | ACCGGGTTCC | 1.08
124 | GCTGAAGTGC | 0.958
125 | ACCTATAGAT | 1
126 | GGTTGGACGC | 1.01
127 | CGAAATATCA | 1.06
128 | ATTCATACAT | 1.03
129 | AGTAACGTGT | 1.04
130 | GTTTTATGTC | 1.02
131 | TCGTATTAAC | 1.1
132 | GGCATGTCAT | 1.01
133 | TGTCGCGGCT | 0.993
134 | GGGAAACTTA | 0.989
135 | TATATTATG | 0.985
136 | TCGGGCTCAA | 1.02
137 | CCATAATTAG | 0.932
138 | CCCGGGAACG | 1.01

Row | Sequence | switch fluorescence ratio
139 | TTACCCGTGG | 0.979
140 | GCTATAGGAG | 1
141 | ACATTATCGA | 1.03
142 | TGTCCGTCA | 1.01
143 | CTATCCGCCG | 0.967
144 | TATCCAACGT | 1.03
145 | TGATATCCAG | 0.957
146 | TGGATAACTT | 1.04
147 | TAATTCGACG | 0.979
148 | CGATTAGCAA | 1.73
149 | CGTTCGTCGT | 1.06
150 | TGATCTGCCC | 1.04
151 | TCTTTAAGTA | 0.969
152 | AGCTGCCCGA | 1.03
153 | ATCCAACCGT | 1.03
154 | TTTATATACA | 1.06
155 | CACCCCCGCA | 2.05
156 | GGCCTGTTTG | 1
157 | TTATGGGTAC | 1.01
